Hit rate of the full screen: of about 310,000 compounds, about 14,000 (4.5%) showed an effect of 50% or more. Effects have a minus sign here. The list shows a part of the results.
target: human ether-à-go-go-related gene (hERG) potassium channel (human, UniProt Q12809); test: primary screen, population patch clamp on CHO cells stably expressing hERG
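Further: peak tail current of the secondary pulse compared with the same well before compound.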

Chain of human ether-à-go-go-related gene (hERG) potassium channel (Q12809 whole entry, looked up): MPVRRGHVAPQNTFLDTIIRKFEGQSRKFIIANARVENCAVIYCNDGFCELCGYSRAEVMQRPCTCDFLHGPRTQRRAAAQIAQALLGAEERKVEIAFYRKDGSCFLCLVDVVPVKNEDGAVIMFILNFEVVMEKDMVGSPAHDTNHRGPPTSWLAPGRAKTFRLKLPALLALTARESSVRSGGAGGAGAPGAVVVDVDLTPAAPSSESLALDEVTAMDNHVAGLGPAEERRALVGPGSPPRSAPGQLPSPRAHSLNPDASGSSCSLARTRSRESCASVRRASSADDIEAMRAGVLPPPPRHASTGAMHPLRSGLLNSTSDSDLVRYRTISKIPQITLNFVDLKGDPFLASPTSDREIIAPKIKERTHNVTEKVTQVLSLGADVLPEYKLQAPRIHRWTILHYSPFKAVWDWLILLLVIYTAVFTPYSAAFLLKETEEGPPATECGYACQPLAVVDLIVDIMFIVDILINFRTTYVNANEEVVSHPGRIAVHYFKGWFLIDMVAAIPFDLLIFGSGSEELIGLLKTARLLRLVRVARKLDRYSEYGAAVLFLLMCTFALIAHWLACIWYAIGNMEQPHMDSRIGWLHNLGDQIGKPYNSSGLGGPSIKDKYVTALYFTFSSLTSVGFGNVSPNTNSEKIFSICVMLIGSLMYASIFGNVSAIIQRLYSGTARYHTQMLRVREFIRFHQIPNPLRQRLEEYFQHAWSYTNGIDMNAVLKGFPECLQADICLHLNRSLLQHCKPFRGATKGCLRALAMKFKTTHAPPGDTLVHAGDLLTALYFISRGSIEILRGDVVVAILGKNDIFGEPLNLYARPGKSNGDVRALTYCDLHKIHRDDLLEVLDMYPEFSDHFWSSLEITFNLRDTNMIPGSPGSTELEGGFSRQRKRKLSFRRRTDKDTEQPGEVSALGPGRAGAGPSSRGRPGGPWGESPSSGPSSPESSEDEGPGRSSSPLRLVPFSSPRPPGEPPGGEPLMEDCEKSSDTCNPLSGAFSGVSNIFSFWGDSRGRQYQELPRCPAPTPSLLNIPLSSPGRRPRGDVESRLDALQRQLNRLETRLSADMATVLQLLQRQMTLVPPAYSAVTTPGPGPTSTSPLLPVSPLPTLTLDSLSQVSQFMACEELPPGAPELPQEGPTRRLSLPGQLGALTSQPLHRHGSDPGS

| Compound | hERG current change (%, negative = inhibition) at 10uM |
| --- | --- |
| Cc1ccc(NC(=O)COC(=O)c2ccc(=O)n(Cc3ccccc3)n2)cc1F | 10.7% |
| COc1ccc(C(=O)NC2CCCN(Cc3ccc(Cl)cc3)C2)c(OC)c1 (stereo not drawn) | -79.5% |
| C=CCn1c(SCC(=O)N(C)C2CCS(=O)(=O)C2)nc2ccccc2c1=O (stereo not drawn) | -50% |
| O=C(c1ccccc1)N(C1=NCCCCS1)c1ccccc1 | -4.83% |
| CCOc1cc(CNc2ccccc2SC)ccc1O | 6.15% |
| Cc1cc(C(=O)NCCc2ccccc2)ccc1[N+](=O)[O-] | -4.7% |
| CC(=O)Nc1nonc1NC(=O)CSc1nc2ccccc2o1 | -6.62% |
| CCC(=O)Nc1ccc(NC(=O)CSc2nnnn2C(C)C)cc1 | -0.728% |
| Fc1ccc(CNC(=S)Nc2ccccc2F)cc1 | 0.377% |
| COc1ccc(CCNC(=O)CSc2nnc(Cc3csc(N)n3)n2C)cc1OC | -4.69% |
| O=C(NCCC1=CCCCC1)C1CCN(S(=O)(=O)c2ccccc2C(F)(F)F)CC1 | 16.4% |
| CCOc1ccc(Nc2nc3c(c(=O)[nH]2)CCC3)cc1 | -1.32% |
| Cc1ccc(S(=O)(=O)NCc2nnc(SCC(=O)Nc3cccc(C)c3C)n2C)cc1 | -19.7% |
| CCC(=O)N1CCc2cc(S(=O)(=O)CCC(=O)NCc3ccco3)ccc21 | 9.48% |
| CSCCC(NC(=O)c1cc([N+](=O)[O-])ccc1Cl)C(=O)O (stereo not drawn) | 19.6% |
| CSc1ncccc1C(=O)Nc1ccc(C)cn1 | 0.536% |
| O=[N+]([O-])c1ccc(NCCCO)c(C(F)(F)F)c1 | -5.87% |
| CN(CC(=O)N1CC=C(c2ccccc2)CC1)S(=O)(=O)c1cnc[nH]1 | 1.5% |
| Cc1cc(NC(=O)CS(=O)(=O)Cc2ccccc2)no1 | 11.8% |
| O=CN1CCN(C(C(=O)NC2CCCCC2)c2cc3c(cc2[N+](=O)[O-])OCO3)CC1 (stereo not drawn) | 13% |
| CCCCCOC(=O)CSc1nnc(-c2cc(OC)c(OC)c(OC)c2)o1 | -11.2% |
| Cc1nc(-c2ccccc2)sc1C(N)=O | 9.01% |
| O=[N+]([O-])c1cc(/C=N/O)ccc1Oc1cccc(Cl)c1 | -53.7% |

| Compound | hERG current change (%, negative = inhibition) at 10uM |
| --- | --- |
| CCN(CC(=O)Nc1c(F)cccc1F)C(=O)/C=C/c1ccc(C)o1 | 17.2% |
| Cc1onc(-c2ccccc2)c1C(=O)NC(C)c1ccc2c(c1)OCO2 (stereo not drawn) | 27.7% |
| CCOc1ccc(C(=S)N2CCCC2)cc1OCC | 9.86% |
| O=C1CCCC/C1=C\Nc1ccc(C(=O)O)c(O)c1 | 6.02% |
| COc1ccc(S(=O)(=O)N(C)CC(=O)Nc2ccccc2C(F)(F)F)cc1OC | -7.67% |
| CC1CCCC(C)N1C(=O)CSc1ccc(-c2ccc3c(c2)OCCO3)nn1 (stereo not drawn) | -26.5% |
| COc1ccc(C)cc1NC(=O)Cn1cnc2sc(C)c(S(=O)(=O)N3CCOCC3)c2c1=O | 7.43% |
| Cc1ccc2c(c1)c1c3n2CCN(CCC(=O)O)C3CCC1 (stereo not drawn) | -3.49% |
| Cc1cc(-c2nnc(CCC(=O)N(C)Cc3cccc4ccccc34)o2)no1 | -23% |
| O=C(Oc1ccccc1)n1c(=S)oc2ccccc21 | 12.2% |
| CC1(C(=O)O)Sc2[nH]c(=O)sc2C2c3ccccc3OC(=O)C21 (stereo not drawn) | 15.4% |
| CCOC(=O)CCc1c(C)nc(SCCN2CCCC2)c(C#N)c1C | -63.9% |
| O=C(c1ccc([N+](=O)[O-])o1)N1CCN(c2nc3ccc(F)cc3s2)CC1 | -23.7% |
| O=C(NCCc1ccc(F)cc1)Nc1ccccc1 | -22.1% |
| CC1C(=O)N2CCCc3cc(NC(=O)C(=O)NCCN4CCOCC4)cc1c32 (stereo not drawn) | 15.2% |
| O=S(=O)(NC1=NCCCCC1)c1ccc(F)cc1 | 11.1% |
| Cc1ccc(S(=O)(=O)N2CCCN(S(=O)(=O)c3ccc4ccccc4c3)CC2)cc1 | -3.38% |
| COc1cc(OC)c(NC(=O)c2sc3ncn(CC(=O)N4CCOCC4)c(=O)c3c2C)cc1Cl | 11.8% |
| Cc1oc(-c2ccccc2Cl)nc1CS(=O)(=O)CC(=O)NC(C)c1ccccc1 (stereo not drawn) | -2.46% |
| O=C(NC1CCCCC1)c1cc(-c2ccco2)on1 | 13.4% |
| COc1ccc(OCC(=O)Nc2nnc(C)s2)cc1 | 9.71% |
| COC(=O)c1[nH]c(C)c(/C(O)=C2\C(=O)C(=O)N(CCN3CCOCC3)C2c2ccc(C)o2)c1C (stereo not drawn) | -6.49% |
| Cc1cccc(N(CC(=O)NCC2CCCO2)C(=O)CCC(=O)Nc2nccs2)c1 (stereo not drawn) | 12.9% |

| Compound | hERG current change (%, negative = inhibition) at 10uM |
| --- | --- |
| COc1ccc(NS(=O)(=O)c2ccc(C)c(C(=O)NCc3cccnc3)c2)cc1 | 8.65% |
| O=C(c1ccc(OC2CCN(Cc3ccccc3C(F)(F)F)CC2)cc1)N1CCCCC1 | 2.01% |
| CCC(C)/C(C)=N/NC(=O)c1ccc(CSc2nc3ccccc3s2)cc1 (stereo not drawn) | -1.29% |
| COc1ccc(NC(=O)c2cc(=O)[nH]c(=O)[nH]2)cc1S(=O)(=O)Nc1ccccc1Cl | 19.4% |
| CC(C)(C)C(=O)CN1C(=O)NC2(CCOc3ccccc32)C1=O (stereo not drawn) | 4.47% |
| Cc1noc(C)c1C(=O)Nc1ccccc1N1CCCC1 | -1.23% |
| NP(=O)(OCC(F)(F)F)Oc1cccc2ccccc12 (stereo not drawn) | -12.4% |
| Cc1cc(NC(=O)c2ccccc2)ccc1NC(=O)c1ccccc1Cl | 15.8% |
| CC(C)(C)c1cc(N/C=C\c2nnnn2-c2ccc(Br)cc2)no1 | 12.1% |
| CN(C)c1ccc(-c2c(-c3ccc4c(c3)OCO4)noc2-c2ccsc2)cn1 | 0.917% |
| CSc1nccc(Oc2cccc(C#N)c2)n1 | -14.4% |
| Cc1cc(C)n2c(SC(C)C(=O)NC3(C#N)CCCCC3)nnc2n1 (stereo not drawn) | 20.5% |
| CCCCCc1nnc(N)s1 | 0.168% |
| Cc1nc(Cc2nnc(SCc3nc(N)nc(Nc4ccccc4C)n3)o2)cs1 | -3.37% |
| CCOc1ccc(C(C)C)cc1S(=O)(=O)N1CCOCC1 | -6.35% |
| CCOC(=O)N1CCC(NC(=O)CSc2cc(=O)n(CC)c3ccccc23)CC1 | -3.31% |
| COc1cccc(OCC(=O)Nc2ccccc2C(N)=O)c1 | 9.1% |
| COCCCNC(=O)c1oc2ccc(S(=O)(=O)N(C)C3CCCCC3)cc2c1C | -4.45% |
| CCOc1ccccc1NC(=O)CCCc1ccc(OC)c(C)c1 | -14.7% |
| O=C(Nc1ccccc1)N1CCC(C(=O)N2CCCC(C(F)(F)F)C2)CC1 (stereo not drawn) | 16% |
| COc1cccc(NC(=S)N2CCN(Cc3ccccc3)CC2)c1 | -5.9% |
| CCn1c(Cc2ccccc2)nnc1SCC(=O)Nc1nc(C)cs1 | -12.4% |
| O=C(CN1C(=O)CSCC1=O)Nc1ccc2c(c1)OCO2 | 16.2% |

| Compound | hERG current change (%, negative = inhibition) at 10uM |
| --- | --- |
| O=C(c1cccs1)N(CCN1CCCCC1)CC1CCCN(C2CCCC2)C1 (stereo not drawn) | 1.03% |
| N#CCCN(C(=O)COC(=O)Cc1c[nH]c2ccccc12)c1ccccc1 | 1.86% |
| COc1ccccc1NC(=O)CCC(=O)N/N=C(/C)c1ccc(C)cc1 | 9.03% |
| O=C(Nc1ccc(CN2CCOCC2)cc1)c1ccc(Cl)cc1 | -15.2% |
| Cc1ccc(/C(N)=N/OC(=O)c2cc(-c3ccccc3)nc3ccccc23)cc1 | 4.59% |
| CCOC(=O)c1c(NC(=O)C2C3C=CC(CC3)C2C(=O)O)sc(C)c1C (stereo not drawn) | -11.3% |
| Cc1cc(C)n2nc3ccccc3c2n1 | 7.41% |
| Cc1cccc(/C=C/c2onc(C)c2S(=O)(=O)N2CCC(C(=O)N3CCCCC3)CC2)c1 | 4.27% |
| Cc1nc(SCc2ccccc2F)c2oc3ccccc3c2n1 | 15.4% |
| COc1ccc(-c2oc3ncn4nc(COc5ccccc5)nc4c3c2-c2ccc(OC)cc2)cc1 | -1.99% |
| Nc1[nH]c2cc([N+](=O)[O-])ccc2c1-c1ccccn1 | 20.1% |
| COc1ccc(CCNC(=O)/C=C/c2ccc(S(=O)(=O)N3CCOCC3)cc2)cc1 | -14.9% |
| CSc1ncccc1C(=O)OCC(=O)c1cccc(Br)c1 | 2.95% |
| COc1ccc(N(CC(O)Cn2c(C)nc3ccccc32)S(=O)(=O)c2ccc(C)cc2)cc1 (stereo not drawn) | -11.5% |
| Nc1c2c(nc3sc4c(c13)CCCCC4)CCCCC2 | -25.9% |
| CCCc1cc(=O)[nH]c2nnc(SCC(=O)Nc3nccs3)n12 | -4.26% |
| O=CN1CCN(C(=O)c2ccc3c(c2)OCO3)CC1 | 21.6% |
| COC(=O)C1=C(C)NC(C)=C(C(=O)OC)C1C(=O)OC1CCCCC1=O (stereo not drawn) | 3.76% |
| Cc1cccc2sc(N(CCCN(C)C)C(=O)CN3C(=O)c4ccccc4C3=O)nc12.Cl | -11.2% |
| Cc1cc(NC(=O)C2CCCN(S(=O)(=O)c3c(C)noc3C)C2)no1 (stereo not drawn) | -0.534% |
| COc1ccc(N2CCN(c3nc(=S)n(-c4ccccc4)c(C)c3C(C)=O)CC2)cc1 | -9.97% |
